# Reference: the supplement of paper PMC8728848
# Some of the results follow.
# B1: PLU (Photorhabdus luminiscence) (protein)
# chain: HHHHHHENLYFQSSIVFASIDPRSNPLQTSSQNYVDIPGLKLDVSKYSNSPCLTALITLNIPTPYASGNNFPGGNFAIVTDQGEQLAYGGFTYSSKIPENSGRMPFTLVARYSLASNVSTIKAQWSNIRGSTVHIDSYASISAVIQCNQLV
# Legend:
# Experiment in all cases: glycan array binding signal (z-score within array); higher = stronger binding
# Details in all cases: glycan notation: IUPAC condensed, linker removed
# [1] = molecular target: Gal(b1-4)GlcNAc(b1-2)[Gal(b1-4)GlcNAc(b1-6)]Man(a1-6)[GlcNAc(b1-4)][Gal(b1-4)GlcNAc(b1-2)Man(a1-3)]Man(b1-4)GlcNAc(b1-4)GlcNAc
# Method in brief: (§1)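 Glycan array binding is given as a within-array Z-score, which can be read as non-binding when negative. The arrays, 3228 of them, came from the Consortium for Functional Glycomics database and were retained only where the protein sequence was available. Z-scores were averaged across arrays of the same protein sequence at different concentrations or buffers and across linkers.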
# [2] = molecular target: Gal(b1-4)GlcNAc(b1-2)[Gal(b1-4)GlcNAc(b1-6)]Man(a1-6)[GlcNAc(b1-4)][Gal(b1-4)GlcNAc(b1-2)[Gal(b1-4)GlcNAc(b1-4)]Man(a1-3)]Man(b1-4)GlcNAc(b1-4)[Fuc(a1-6)]GlcNAc
# Method in brief: as §1
# [3] = molecular target: Gal(b1-4)GlcNAc(b1-3)Gal(b1-3)GalNAc
# Method in brief: as §1
# [4] = molecular target: Gal(b1-4)GlcNAc(b1-3)Gal(b1-3)GlcNAc
# Method in brief: as §1
# [5] = molecular target: Gal(b1-4)GlcNAc(b1-3)Gal(b1-4)Glc
# Method in brief: as §1
# [6] = molecular target: Gal(b1-4)GlcNAc(b1-3)Gal(b1-4)GlcNAc
# Method in brief: as §1
# [7] = molecular target: Gal(b1-4)GlcNAc(b1-3)Gal(b1-4)GlcNAc(b1-2)Man(a1-3)[Gal(b1-4)GlcNAc(b1-3)Gal(b1-4)GlcNAc(b1-2)Man(a1-6)]Man(b1-4)GlcNAc(b1-4)GlcNAc
# Method in brief: as §1
# [8] = molecular target: Gal(b1-4)GlcNAc(b1-3)Gal(b1-4)GlcNAc(b1-2)Man(a1-3)[Gal(b1-4)GlcNAc(b1-3)Gal(b1-4)GlcNAc(b1-2)Man(a1-6)]Man(b1-4)GlcNAc(b1-4)[Fuc(a1-6)]GlcNAc
# Method in brief: as §1
# [9] = molecular target: Gal(b1-4)GlcNAc(b1-3)Gal(b1-4)GlcNAc(b1-2)[Gal(b1-4)GlcNAc(b1-3)Gal(b1-4)GlcNAc(b1-6)]Man(a1-6)[Gal(b1-4)GlcNAc(b1-3)Gal(b1-4)GlcNAc(b1-2)Man(a1-3)]Man(b1-4)GlcNAc(b1-4)GlcNAc
# Method in brief: as §1
# [10] = molecular target: Gal(b1-4)GlcNAc(b1-3)Gal(b1-4)GlcNAc(b1-2)[Gal(b1-4)GlcNAc(b1-3)Gal(b1-4)GlcNAc(b1-6)]Man(a1-6)[Gal(b1-4)GlcNAc(b1-3)Gal(b1-4)GlcNAc(b1-2)Man(a1-3)]Man(b1-4)GlcNAc(b1-4)[Fuc(a1-6)]GlcNAc
# Method in brief: as §1
# [11] = molecular target: Gal(b1-4)GlcNAc(b1-3)Gal(b1-4)GlcNAc(b1-3)Gal(b1-4)GlcNAc
# Method in brief: as §1
# [12] = molecular target: Gal(b1-4)GlcNAc(b1-3)Gal(b1-4)GlcNAc(b1-3)Gal(b1-4)GlcNAc(b1-2)Man(a1-3)[Gal(b1-4)GlcNAc(b1-3)Gal(b1-4)GlcNAc(b1-3)Gal(b1-4)GlcNAc(b1-2)Man(a1-6)]Man(b1-4)GlcNAc(b1-4)GlcNAc
# Method in brief: as §1
# [13] = molecular target: Gal(b1-4)GlcNAc(b1-3)Gal(b1-4)GlcNAc(b1-3)Gal(b1-4)GlcNAc(b1-2)Man(a1-3)[Gal(b1-4)GlcNAc(b1-3)Gal(b1-4)GlcNAc(b1-3)Gal(b1-4)GlcNAc(b1-2)Man(a1-6)]Man(b1-4)GlcNAc(b1-4)[Fuc(a1-6)]GlcNAc
# Method in brief: as §1
# [14] = molecular target: Gal(b1-4)GlcNAc(b1-3)Gal(b1-4)GlcNAc(b1-3)Gal(b1-4)GlcNAc(b1-2)[Gal(b1-4)GlcNAc(b1-3)Gal(b1-4)GlcNAc(b1-3)Gal(b1-4)GlcNAc(b1-6)]Man(a1-6)[Gal(b1-4)GlcNAc(b1-3)Gal(b1-4)GlcNAc(b1-3)Gal(b1-4)GlcNAc(b1-2)Man(a1-3)]Man(b1-4)GlcNAc(b1-4)[Fuc(a1-6)]GlcNAc
# Method in brief: as §1
# [15] = molecular target: Gal(b1-4)GlcNAc(b1-3)Gal(b1-4)GlcNAc(b1-3)Gal(b1-4)GlcNAc(b1-3)Gal(b1-4)GlcNAc(b1-2)Man(a1-3)[Gal(b1-4)GlcNAc(b1-3)Gal(b1-4)GlcNAc(b1-3)Gal(b1-4)GlcNAc(b1-3)Gal(b1-4)GlcNAc(b1-2)Man(a1-6)]Man(b1-4)GlcNAc(b1-4)GlcNAc
# Method in brief: as §1
# [16] = molecular target: Gal(b1-4)GlcNAc(b1-3)Gal(b1-4)GlcNAc(b1-3)Gal(b1-4)GlcNAc(b1-3)Gal(b1-4)GlcNAc(b1-2)Man(a1-3)[Gal(b1-4)GlcNAc(b1-3)Gal(b1-4)GlcNAc(b1-3)Gal(b1-4)GlcNAc(b1-3)Gal(b1-4)GlcNAc(b1-2)Man(a1-6)]Man(b1-4)GlcNAc(b1-4)[Fuc(a1-6)]GlcNAc
# Method in brief: as §1
# [17] = molecular target: Gal(b1-4)GlcNAc(b1-3)Gal(b1-4)GlcNAc(b1-3)Gal(b1-4)GlcNAc(b1-3)Gal(b1-4)GlcNAc(b1-2)[Gal(b1-4)GlcNAc(b1-3)Gal(b1-4)GlcNAc(b1-3)Gal(b1-4)GlcNAc(b1-3)Gal(b1-4)GlcNAc(b1-6)]Man(a1-6)[Gal(b1-4)GlcNAc(b1-3)Gal(b1-4)GlcNAc(b1-3)Gal(b1-4)GlcNAc(b1-3)Gal(b1-4)GlcNAc(b1-2)Man(a1-3)]Man(b1-4)GlcNAc(b1-4)[Fuc(a1-6)]GlcNAc
# Method in brief: as §1
# [18] = molecular target: Gal(b1-4)GlcNAc(b1-3)Gal(b1-4)GlcNAc(b1-3)Gal(b1-4)GlcNAc(b1-3)Gal(b1-4)GlcNAc(b1-3)Gal(b1-4)GlcNAc(b1-2)Man(a1-3)[Gal(b1-4)GlcNAc(b1-3)Gal(b1-4)GlcNAc(b1-3)Gal(b1-4)GlcNAc(b1-3)Gal(b1-4)GlcNAc(b1-3)Gal(b1-4)GlcNAc(b1-2)Man(a1-6)]Man(b1-4)GlcNAc(b1-4)GlcNAc
# Method in brief: as §1
# [19] = molecular target: Gal(b1-4)GlcNAc(b1-3)Gal(b1-4)GlcNAc(b1-3)Gal(b1-4)GlcNAc(b1-3)Gal(b1-4)GlcNAc(b1-3)Gal(b1-4)GlcNAc(b1-2)Man(a1-3)[Gal(b1-4)GlcNAc(b1-3)Gal(b1-4)GlcNAc(b1-3)Gal(b1-4)GlcNAc(b1-3)Gal(b1-4)GlcNAc(b1-3)Gal(b1-4)GlcNAc(b1-2)Man(a1-6)]Man(b1-4)GlcNAc(b1-4)[Fuc(a1-6)]GlcNAc
# Method in brief: as §1
# [20] = molecular target: Gal(b1-4)GlcNAc(b1-3)Gal(b1-4)GlcNAc(b1-3)Gal(b1-4)GlcNAc(b1-3)Gal(b1-4)GlcNAc(b1-3)Gal(b1-4)GlcNAc(b1-2)[Gal(b1-4)GlcNAc(b1-3)Gal(b1-4)GlcNAc(b1-3)Gal(b1-4)GlcNAc(b1-3)Gal(b1-4)GlcNAc(b1-3)Gal(b1-4)GlcNAc(b1-6)]Man(a1-6)[Gal(b1-4)GlcNAc(b1-3)Gal(b1-4)GlcNAc(b1-3)Gal(b1-4)GlcNAc(b1-3)Gal(b1-4)GlcNAc(b1-3)Gal(b1-4)GlcNAc(b1-2)Man(a1-3)]Man(b1-4)GlcNAc(b1-4)[Fuc(a1-6)]GlcNAc
# Method in brief: as §1
# [21] = molecular target: Gal(b1-4)GlcNAc(b1-3)Gal(b1-4)GlcNAc(b1-3)Gal(b1-4)GlcNAc(b1-3)Gal(b1-4)GlcNAc(b1-3)Gal(b1-4)GlcNAc(b1-3)Gal(b1-4)GlcNAc(b1-2)Man(a1-3)[Gal(b1-4)GlcNAc(b1-3)Gal(b1-4)GlcNAc(b1-3)Gal(b1-4)GlcNAc(b1-3)Gal(b1-4)GlcNAc(b1-3)Gal(b1-4)GlcNAc(b1-3)Gal(b1-4)GlcNAc(b1-2)Man(a1-6)]Man(b1-4)GlcNAc(b1-4)GlcNAc
# Method in brief: as §1
# [22] = molecular target: Gal(b1-4)GlcNAc(b1-3)Gal(b1-4)GlcNAc(b1-3)GalNAc
# Method in brief: as §1
# [23] = molecular target: Gal(b1-4)GlcNAc(b1-3)Gal(b1-4)GlcNAc(b1-3)[Gal(b1-4)GlcNAc(b1-3)Gal(b1-4)GlcNAc(b1-6)]GalNAc
# Method in brief: as §1
binder,measurement,setting,value
B1,glycan array binding signal (z-score),[1],-0.222
same,glycan array binding signal (z-score),[2],-0.282
same,glycan array binding signal (z-score),[3],-0.433
same,glycan array binding signal (z-score),[4],-0.332
same,glycan array binding signal (z-score),[5],-0.238
same,glycan array binding signal (z-score),[6],-0.271
same,glycan array binding signal (z-score),[7],-0.21
same,glycan array binding signal (z-score),[8],-0.131
same,glycan array binding signal (z-score),[9],-0.215
same,glycan array binding signal (z-score),[10],-0.219
same,glycan array binding signal (z-score),[11],-0.275
same,glycan array binding signal (z-score),[12],-0.23
same,glycan array binding signal (z-score),[13],-0.256
same,glycan array binding signal (z-score),[14],-0.211
same,glycan array binding signal (z-score),[15],-0.179
same,glycan array binding signal (z-score),[16],-0.203
same,glycan array binding signal (z-score),[17],-0.152
same,glycan array binding signal (z-score),[18],-0.254
same,glycan array binding signal (z-score),[19],-0.211
same,glycan array binding signal (z-score),[20],-0.211
same,glycan array binding signal (z-score),[21],-0.163
same,glycan array binding signal (z-score),[22],-0.042
same,glycan array binding signal (z-score),[23],-0.111
